# The other results are listed elsewhere or left out.
# B1: GNAT (Pseudomonas aeruginosa), Q9HV14 (protein)
# chain: MQLSHRPAETGDLETVAGFPQDRDELFYCYPKAIWPFSVAQLAAAIAERRGSTVAVHDGQVLGFANFYQWQHGDFCALGNMMVAPAARGLGVARYLIGVMENLAREQYKARLMKISCFNANAAGLLLYTQLGYQPRAIAERHDPDGRRVALIQMDKPLEP
# Assays:
# Assay in all cases: glycan array binding signal (z-score within array); higher = stronger binding
# Conditions in all cases: glycan notation: IUPAC condensed, linker removed
# [1] = molecular target: Gal(b1-3)GlcNAc(a1-6)Gal(b1-4)GlcNAc
# Outline: (§1)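 Negative Z-scores can be read as non-binding. The Z-score is calculated within each array and then averaged across arrays of one protein sequence at different concentrations or buffers and across linkers. Arrays, 3228 in all, were curated from the Consortium for Functional Glycomics database and kept only where the protein sequence was available.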
# [2] = molecular target: Gal(b1-3)GlcNAc(b1-2)Man(a1-3)[Gal(b1-3)GlcNAc(b1-2)Man(a1-6)]Man(b1-4)GlcNAc(b1-4)GlcNAc
# Outline: as §1
# [3] = molecular target: Gal(b1-3)GlcNAc(b1-2)Man(a1-3)[Gal(b1-3)GlcNAc(b1-2)Man(a1-6)]Man(b1-4)GlcNAc(b1-4)[Fuc(a1-6)]GlcNAc
# Outline: as §1
# [4] = molecular target: Gal(b1-3)GlcNAc(b1-2)[Gal(b1-3)GlcNAc(b1-6)]Man(a1-6)[Gal(b1-3)GlcNAc(b1-2)Man(a1-3)]Man(b1-4)GlcNAc(b1-4)GlcNAc
# Outline: as §1
# [5] = molecular target: Gal(b1-3)GlcNAc(b1-3)Gal(b1-3)GlcNAc
# Outline: as §1
# [6] = molecular target: Gal(b1-3)GlcNAc(b1-3)Gal(b1-4)Glc
# Outline: as §1
# [7] = molecular target: Gal(b1-3)GlcNAc(b1-3)Gal(b1-4)GlcNAc
# Outline: as §1
# [8] = molecular target: Gal(b1-3)GlcNAc(b1-3)Gal(b1-4)GlcNAc(b1-6)[Gal(b1-3)GlcNAc(b1-3)]Gal(b1-4)Glc
# Outline: as §1
# [9] = molecular target: Gal(b1-3)GlcNAc(b1-3)Gal(b1-4)[Fuc(a1-3)]GlcNAc(b1-6)[Gal(b1-3)GlcNAc(b1-3)]Gal(b1-4)Glc
# Outline: as §1
# [10] = molecular target: Gal(b1-3)GlcNAc(b1-3)GalNAc
# Outline: as §1
# [11] = molecular target: Gal(b1-3)GlcNAc(b1-6)Gal(b1-4)GlcNAc
# Outline: as §1
# [12] = molecular target: Gal(b1-3)[Fuc(a1-4)]GlcNAc
# Outline: as §1
# [13] = molecular target: Gal(b1-3)[Fuc(a1-4)]GlcNAc(b1-2)Man(a1-3)[Gal(b1-3)[Fuc(a1-4)]GlcNAc(b1-2)Man(a1-6)]Man(b1-4)GlcNAc(b1-4)GlcNAc
# Outline: as §1
# [14] = molecular target: Gal(b1-3)[Fuc(a1-4)]GlcNAc(b1-2)Man(a1-3)[Gal(b1-3)[Fuc(a1-4)]GlcNAc(b1-2)Man(a1-6)]Man(b1-4)GlcNAc(b1-4)[Fuc(a1-6)]GlcNAc
# Outline: as §1
# [15] = molecular target: Gal(b1-3)[Fuc(a1-4)]GlcNAc(b1-3)Gal(b1-3)[Fuc(a1-4)]GlcNAc
# Outline: as §1
# [16] = molecular target: Gal(b1-3)[Fuc(a1-4)]GlcNAc(b1-3)Gal(b1-4)GlcNAc
# Outline: as §1
# [17] = molecular target: Gal(b1-3)[Fuc(a1-4)]GlcNAc(b1-3)Gal(b1-4)[Fuc(a1-3)]GlcNAc
# Outline: as §1
# [18] = molecular target: Gal(b1-3)[GlcNAc(b1-6)]GalNAc
# Outline: as §1
# [19] = molecular target: Gal(b1-3)[Neu5Ac(a2-6)]GalNAc
# Outline: as §1
# [20] = molecular target: Gal(b1-3)[Neu5Ac(a2-6)]GlcNAc(b1-6)Gal(b1-4)Glc
# Outline: as §1
# [21] = molecular target: Gal(b1-3)[Neu5Ac(b2-6)]GalNAc
# Outline: as §1
# [22] = molecular target: Gal(b1-4)Gal
# Outline: as §1
# [23] = molecular target: Gal(b1-4)GalNAc(a1-3)[Fuc(a1-2)]Gal(b1-4)GlcNAc
# Outline: as §1
# [24] = molecular target: Gal(b1-4)GalNAc(b1-3)[Fuc(a1-2)]Gal(b1-4)GlcNAc
# Outline: as §1
# [25] = molecular target: Gal(b1-4)Glc
# Outline: as §1
# [26] = molecular target: Gal(b1-4)Glc6S
# Outline: as §1
# [27] = molecular target: Gal(b1-4)GlcNAc
# Outline: as §1
# [28] = molecular target: Gal(b1-4)GlcNAc(a1-6)Gal(b1-4)GlcNAc
# Outline: as §1
# [29] = molecular target: Gal(b1-4)GlcNAc(b1-2)Man
# Outline: as §1
# [30] = molecular target: Gal(b1-4)GlcNAc(b1-2)Man(a1-3)Man(b1-4)GlcNAc(b1-4)GlcNAc
# Outline: as §1
# [31] = molecular target: Gal(b1-4)GlcNAc(b1-2)Man(a1-3)[Gal(b1-4)GlcNAc(b1-2)Man(a1-6)]Man(b1-4)GlcNAc(b1-4)GlcNAc
# Outline: as §1
# [32] = molecular target: Gal(b1-4)GlcNAc(b1-2)Man(a1-3)[Gal(b1-4)GlcNAc(b1-2)Man(a1-6)]Man(b1-4)GlcNAc(b1-4)[Fuc(a1-6)]GlcNAc
# Outline: as §1
# [33] = molecular target: Gal(b1-4)GlcNAc(b1-2)Man(a1-3)[Gal(b1-4)GlcNAc(b1-2)][GlcNAc(b1-4)]Man(b1-4)GlcNAc(b1-4)GlcNAc
# Outline: as §1
# [34] = molecular target: Gal(b1-4)GlcNAc(b1-2)Man(a1-3)[GlcNAc(b1-2)Man(a1-6)]Man(b1-4)GlcNAc(b1-4)GlcNAc
# Outline: as §1
# [35] = molecular target: Gal(b1-4)GlcNAc(b1-2)Man(a1-3)[Man(a1-6)]Man(b1-4)GlcNAc(b1-4)GlcNAc
# Outline: as §1
# [36] = molecular target: Gal(b1-4)GlcNAc(b1-2)Man(a1-6)Man(b1-4)GlcNAc(b1-4)GlcNAc
# Outline: as §1
# [37] = molecular target: Gal(b1-4)GlcNAc(b1-2)Man(a1-6)[GlcNAc(b1-2)Man(a1-3)]Man(b1-4)GlcNAc(b1-4)GlcNAc
# Outline: as §1
# [38] = molecular target: Gal(b1-4)GlcNAc(b1-2)Man(a1-6)[Man(a1-3)]Man(b1-4)GlcNAc(b1-4)GlcNAc
# Outline: as §1
# [39] = molecular target: Gal(b1-4)GlcNAc(b1-2)[Gal(b1-4)GlcNAc(b1-4)]Man(a1-3)[Gal(b1-4)GlcNAc(b1-2)Man(a1-6)]Man(b1-4)GlcNAc(b1-4)GlcNAc
# Outline: as §1
# [40] = molecular target: Gal(b1-4)GlcNAc(b1-2)[Gal(b1-4)GlcNAc(b1-4)]Man(a1-3)[Gal(b1-4)GlcNAc(b1-2)[Gal(b1-4)GlcNAc(b1-6)]Man(a1-6)]Man(b1-4)GlcNAc(b1-4)GlcNAc
# Outline: as §1
# [41] = molecular target: Gal(b1-4)GlcNAc(b1-2)[Gal(b1-4)GlcNAc(b1-4)]Man(a1-3)[GlcNAc(b1-4)][Gal(b1-4)GlcNAc(b1-2)Man(a1-6)]Man(b1-4)GlcNAc(b1-4)GlcNAc
# Outline: as §1
# [42] = molecular target: Gal(b1-4)GlcNAc(b1-2)[Gal(b1-4)GlcNAc(b1-4)]Man(a1-3)[GlcNAc(b1-4)][Gal(b1-4)GlcNAc(b1-2)[Gal(b1-4)GlcNAc(b1-6)]Man(a1-6)]Man(b1-4)GlcNAc(b1-4)GlcNAc
# Outline: as §1
# [43] = molecular target: Gal(b1-4)GlcNAc(b1-2)[Gal(b1-4)GlcNAc(b1-6)]Man(a1-6)[Gal(b1-4)GlcNAc(b1-2)Man(a1-3)]Man(b1-4)GlcNAc(b1-4)GlcNAc
# Outline: as §1
# [44] = molecular target: Gal(b1-4)GlcNAc(b1-2)[Gal(b1-4)GlcNAc(b1-6)]Man(a1-6)[GlcNAc(b1-4)][Gal(b1-4)GlcNAc(b1-2)Man(a1-3)]Man(b1-4)GlcNAc(b1-4)GlcNAc
# Outline: as §1
# [45] = molecular target: Gal(b1-4)GlcNAc(b1-3)Gal(b1-3)GlcNAc
# Outline: as §1
binder,measurement,setting,value
B1,glycan array binding signal (z-score),[1],-0.301
same,glycan array binding signal (z-score),[2],1.73
same,glycan array binding signal (z-score),[3],0.185
same,glycan array binding signal (z-score),[4],1.59
same,glycan array binding signal (z-score),[5],0.929
same,glycan array binding signal (z-score),[6],0.418
same,glycan array binding signal (z-score),[7],0.381
same,glycan array binding signal (z-score),[8],1.59
same,glycan array binding signal (z-score),[9],2.87
same,glycan array binding signal (z-score),[10],0.367
same,glycan array binding signal (z-score),[11],0.151
same,glycan array binding signal (z-score),[12],-0.371
same,glycan array binding signal (z-score),[13],0.539
same,glycan array binding signal (z-score),[14],-0.429
same,glycan array binding signal (z-score),[15],-0.328
same,glycan array binding signal (z-score),[16],0.297
same,glycan array binding signal (z-score),[17],-0.315
same,glycan array binding signal (z-score),[18],-0.19
same,glycan array binding signal (z-score),[19],0.421
same,glycan array binding signal (z-score),[20],-0.242
same,glycan array binding signal (z-score),[21],-0.065
same,glycan array binding signal (z-score),[22],-0.449
same,glycan array binding signal (z-score),[23],-0.14
same,glycan array binding signal (z-score),[24],0.29
same,glycan array binding signal (z-score),[25],-0.418
same,glycan array binding signal (z-score),[26],-0.348
same,glycan array binding signal (z-score),[27],-0.177
same,glycan array binding signal (z-score),[28],0.533
same,glycan array binding signal (z-score),[29],-0.305
same,glycan array binding signal (z-score),[30],3.3
same,glycan array binding signal (z-score),[31],0.642
same,glycan array binding signal (z-score),[32],1.65
same,glycan array binding signal (z-score),[33],-0.346
same,glycan array binding signal (z-score),[34],0.022
same,glycan array binding signal (z-score),[35],0.566
same,glycan array binding signal (z-score),[36],1.43
same,glycan array binding signal (z-score),[37],0.319
same,glycan array binding signal (z-score),[38],0.29
same,glycan array binding signal (z-score),[39],0.525
same,glycan array binding signal (z-score),[40],-0.343
same,glycan array binding signal (z-score),[41],2.72
same,glycan array binding signal (z-score),[42],-0.234
same,glycan array binding signal (z-score),[43],1.21
same,glycan array binding signal (z-score),[44],-0.222
same,glycan array binding signal (z-score),[45],-0.087

# From the supplement of paper PMC8728848
